Relative growth data for 57 compounds are collected here from the supplement of paper PMC9446081.

About 220 (0.56%) of roughly 39,000 compounds showed activity. The list shows a part of the results.
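Also: static incubation at 37 °C against the wild-type strain, values averaged over two biological replicates.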

This assay deals with Escherichia coli K-12 BW25113. Description: relative growth (OD600 normalised to plate interquartile mean) (fraction); higher = less growth inhibition, active = 0.2 or less. The settings on record: 50 µM; LB; incubation time: overnight (16-24 h).
For the compound `C[C@H]1CC/C=C\[C@H]2O[C@@]34C=CCN(c5ccc(Cl)cc5)C(=O)[C@H]3N(CCCO)C(=O)[C@]4(C)[C@@H]2C(=O)O1`, the relative growth was inactive: 0.978.
On to `CCCN(C)C[C@@H]1OCCCC[C@H](C)Oc2ccc(NC(=O)Nc3ccc(F)cc3)cc2C(=O)N([C@H](C)CO)C[C@@H]1C`, for which the relative growth was inactive: 0.997.
Turning to `CC(C)NC(=O)N(C)C[C@H]1Oc2ccc(NC(=O)CCC(F)(F)F)cc2C(=O)N([C@@H](C)CO)C[C@H]1C`, the relative growth was inactive: 1.02.
Turning to `COc1ccc(S(=O)(=O)N(C)C[C@@H]2Oc3ccc(NC(=O)Cn4cnnn4)cc3C(=O)N([C@H](C)CO)C[C@@H]2C)cc1`, the relative growth is inactive: 1.03.
Regarding `C[C@H]1CN([C@@H](C)CO)C(=O)c2cc(NS(=O)(=O)c3cn(C)cn3)ccc2O[C@@H]1CN(C)C(=O)NC1CCCCC1`, the relative growth is inactive: 1.
In the case of `CO[C@H]1/C=C\C=C(/C)C(=O)NC2=CC(=O)C(NCCN(C)C)=C(C[C@@H](C)C[C@H](OC)[C@H](O)[C@@H](C)/C=C(\C)[C@@H]1OC(N)=O)C2=O`, the relative growth is inactive: 1.01.
Turning to `Cc1ccccc1S(=O)(=O)N1C[C@H](O)COC[C@H]2O[C@H](CC(=O)NCCc3ccncc3)CC[C@@H]21`, the relative growth is inactive: 0.995.
As for `CC(=O)O[C@H]1C[C@@]2(C)[C@@H](C[C@@H](O)[C@H]3[C@@]4(C)CC[C@@H](O)[C@@H](C)[C@@H]4CC[C@@]32C)/C1=C(\CCC=C(C)C)C(=O)O`, the figure is inactive: 0.97; as for `CCSc1nc(=O)c(C)n[nH]1`, inactive: 0.962.
Regarding `C[C@@H]1CCCCO[C@H](CN(C)S(C)(=O)=O)[C@@H](C)CN([C@@H](C)CO)C(=O)c2cc(NS(=O)(=O)c3ccc(F)cc3)ccc2O1`, the relative growth was inactive: 0.989.
Consider `C[C@H]1[C@H]([Si](C)(C)F)[C@@H](CC(=O)N(CCO)Cc2ccccc2)O[C@]12C(=O)N(c1ccccc1)c1ccccc12`, for which the relative growth is inactive: 1.
As for `Cc1noc(C)c1S(=O)(=O)N(C)C[C@@H]1Oc2ccc(NC(=O)Cn3cnnn3)cc2CC(=O)N([C@H](C)CO)C[C@H]1C`, the relative growth is inactive: 0.992.
For `C[C@@H]1CN([C@@H](C)CO)C(=O)Cc2cc(NC(=O)Nc3cccc4ccccc34)ccc2O[C@@H]1CN(C)C(=O)NC1CCCCC1`, the relative growth was inactive: 1.
Consider `CCCNC(=O)N1C[C@H](O)COC[C@H]2O[C@@H](CC(=O)NCCCN3CCOCC3)CC[C@@H]21`, for which the relative growth is inactive: 1.02.
As to `C[C@H]1CN([C@@H](C)CO)C(=O)Cc2cc(NC(=O)Nc3cccc4ccccc34)ccc2O[C@@H]1CN(C)C(=O)Nc1ccc(C(F)(F)F)cc1`, the relative growth was inactive: 0.854.
Consider `O=C(Nc1cccc2cccnc12)[C@@H]1[C@H](c2cccc(Br)c2)CC(=O)N1C(=O)OCc1ccccc1`, for which the relative growth was inactive: 1.01.
As to `C[C@@H]1CCCCO[C@@H](CN(C)Cc2ccc(C(=O)O)cc2)[C@H](C)CN([C@@H](C)CO)C(=O)c2cc(NC(=O)NC3CCCCC3)ccc2O1`, the relative growth is inactive: 1.01.
As for `C[C@@H]1CN([C@@H](C)CO)C(=O)c2cc(C#CCN(C)C)cnc2O[C@@H]1CN(C)C(=O)CCN1CCCCC1`, the figure is inactive: 1.03; as for `C[C@@H]1CN([C@@H](C)CO)C(=O)c2cc(NC(=O)CCN3CCOCC3)ccc2O[C@H]1CN(C)S(=O)(=O)c1ccc(F)cc1`, inactive: 0.93.
Take `COc1ccc(S(=O)(=O)Nc2ccc3c(c2)C(=O)N([C@H](C)CO)C[C@H](C)[C@H](CN(C)S(C)(=O)=O)O3)cc1`: the relative growth was inactive: 0.99.
`COc1ccc(S(=O)(=O)N(C)C[C@H]2Oc3c(NC(=O)C4CCOCC4)cccc3C(=O)N([C@H](C)CO)C[C@H]2C)cc1`: the relative growth was inactive: 0.921.
As for `COc1ccc(S(=O)(=O)N(C)C[C@@H]2Oc3ccc(NC(=O)CCCN(C)C)cc3C(=O)N([C@@H](C)CO)C[C@@H]2C)cc1`, the figure is inactive: 1.05; as for `COc1ccc(S(=O)(=O)N(C)C[C@H]2Oc3c(NS(=O)(=O)c4cccs4)cccc3C(=O)N([C@H](C)CO)C[C@@H]2C)cc1`, inactive: 1.02; as for `COc1ccc(S(=O)(=O)Nc2ccc3c(c2)CC(=O)N([C@@H](C)CO)C[C@H](C)[C@@H](CN(C)CC2CC2)O3)cc1`, inactive: 1.01.
In the case of `C[C@H](CO)N1C[C@H](C)[C@H](CN(C)S(=O)(=O)c2ccc(Cl)cc2)OCCCC[C@H](C)Oc2ccc(NC(=O)CCC(F)(F)F)cc2C1=O`, the relative growth was inactive: 1.05.
For the compound `O=C(C[C@@H]1CC[C@H]2[C@@H](COC[C@H](O)CN2S(=O)(=O)c2ccccc2)O1)N1CCOCC1`, the relative growth was inactive: 1.04.
In the case of `C[C@@H]1COC(=O)[C@@H](Cc2ccc(F)cc2)CC=CC[C@@H](CC(=O)N[C@@H](CO)Cc2ccccc2)C(=O)N1`, the relative growth is inactive: 0.998.
The result for `Cc1ccc(S(=O)(=O)Nc2ccc3c(c2)C(=O)N([C@H](C)CO)C[C@H](C)[C@@H](CN(C)Cc2ccc(C(F)(F)F)cc2)OCCCC[C@@H](C)O3)cc1` reads inactive: 1.03; that for `COc1ccc([Si](C)(C)[C@H]2[C@H](CC(=O)N(CCO)Cc3ccccc3)O[C@@]3(C(=O)N(Cc4cccc(N5CCCCC5=O)c4)c4ccccc43)[C@@H]2C)cc1`, inactive: 0.992.
In the case of `C[C@@H]1CN([C@@H](C)CO)C(=O)c2cc(NC(=O)CCCCCC(=O)Nc3ccccc3N)ccc2O[C@@H](C)CCCCO[C@@H]1CN(C)CC1CCCCC1`, the relative growth is inactive: 0.946.
Take `COc1ccc(S(=O)(=O)N(C)C[C@@H]2Oc3ccc(NC(=O)C4CC4)cc3C(=O)N([C@@H](C)CO)C[C@H]2C)cc1`: the relative growth is inactive: 0.99.
The result for `C[C@H](NC(=O)C[C@@H]1C=C[C@H](NC(=O)CN2CCOCC2)[C@@H](CO)O1)c1ccccc1` reads inactive: 1.03; that for `Cc1ccc(S(=O)(=O)Nc2ccc3c(c2)C(=O)N([C@@H](C)CO)C[C@@H](C)[C@H](CN(C)C(=O)NC2CCCCC2)OCCCC[C@H](C)O3)cc1`, inactive: 1.02.
As for `Cc1noc(C)c1NC(=O)Nc1ccc2c(c1)CC(=O)N([C@@H](C)CO)C[C@@H](C)[C@@H](CN(C)Cc1ccc(Cl)c(Cl)c1)O2`, the figure is inactive: 0.971.
As to `COCC(=O)N1C[C@]2(C1)CN([C@H](CO)c1[nH]c3cc(ccc3c12)OC)S(=O)(=O)C`, the relative growth is inactive: 1.
With `Cc1noc(C)c1S(=O)(=O)Nc1ccc2c(c1)C(=O)N([C@@H](C)CO)C[C@@H](C)[C@H](CN(C)S(=O)(=O)c1ccc(F)cc1)O2`, the relative growth was inactive: 1.04.
Consider `C[C@@H]1CN([C@@H](C)CO)C(=O)c2cc(NC(=O)Nc3cccc4ccccc34)ccc2O[C@H]1CN(C)S(=O)(=O)c1ccc(Cl)cc1`, for which the relative growth is inactive: 0.99.
On to `COc1ccc(NC(=O)N[C@H]2CC[C@H](CCNC(=O)CN3CCOCC3)O[C@@H]2CO)cc1`, for which the relative growth is inactive: 1.
The result for `C[C@@H]1CN([C@@H](C)CO)C(=O)Cc2cc(NC(=O)Nc3ccc(C(F)(F)F)cc3)ccc2O[C@H]1CN(C)Cc1ccc(C(F)(F)F)cc1` reads inactive: 1.04; that for `C[C@@H]1CN([C@H](C)CO)C(=O)c2cccc(NS(C)(=O)=O)c2O[C@@H]1CN(C)Cc1ccc(C(=O)Nc2ccccc2N)cc1`, inactive: 0.989.
For `C[C@H](CO)N1C[C@H](C)[C@H](CN(C)S(=O)(=O)c2cccc(C#N)c2)OCc2cnnn2CCCC1=O`, the relative growth was inactive: 0.963.
Regarding `COC[C@H]1CNN1C(=O)c1cc(C)oc1C`, the relative growth was inactive: 1.04.
The result for `N[C@H]1[C@H](CCCCC(=O)O)SC[C@@H]1N` reads inactive: 0.943; that for `O=C(C[C@H]1C[C@H]2c3cc(NC(=O)NC4CCCC4)ccc3O[C@H]2[C@@H](CO)O1)NCCN1CCCCC1`, inactive: 0.997; that for `COc1ccc(S(=O)(=O)Nc2ccc3c(c2)C(=O)N([C@H](C)CO)C[C@H](C)[C@H](CN(C)C(=O)c2ccccc2)OCCCC[C@@H](C)O3)cc1`, inactive: 0.984.
As to `C[C@@H]1CN([C@@H](C)CO)C(=O)c2cc(NC(=O)Nc3cccc4ccccc34)ccc2O[C@@H](C)CCCCO[C@@H]1CN(C)C(=O)c1ccccc1`, the relative growth was inactive: 1.
The result for `C[C@H]1CN([C@@H](C)CO)C(=O)Cc2cc(NC(=O)Cn3cnnn3)ccc2O[C@@H]1CN(C)C(=O)Nc1cccc2ccccc12` reads inactive: 0.974.
`COc1ccc(NC(=O)N(C)C[C@H]2Oc3ccc(NS(=O)(=O)c4cn(C)cn4)cc3CC(=O)N([C@@H](C)CO)C[C@@H]2C)cc1`: the relative growth was inactive: 1.01.
For the compound `COc1ccc(S(=O)(=O)N2C[C@@H](O)COC[C@@H]3O[C@@H](CC(=O)NCCCN4CCOCC4)CC[C@H]32)cc1`, the relative growth was inactive: 0.996.
Consider `Cc1ccc(S(=O)(=O)N(C)C[C@@H]2Oc3cc(Br)ccc3S(=O)(=O)N([C@H](C)CO)C[C@@H]2C)cc1`, for which the relative growth is inactive: 1.04.
As for `C[C@@H]1CN([C@H](C)CO)C(=O)c2cc(NC(=O)Cn3cnnn3)ccc2O[C@H]1CN(C)Cc1ccc(C(=O)Nc2ccccc2N)cc1`, the figure is inactive: 0.984; as for `CC[C@H]1Sc2ccccc2NC1=O`, inactive: 0.975.
Turning to `CO[C@H]1CN(C)C(=O)c2cc(NC(=O)Nc3ccccc3)ccc2OC[C@@H](C)N(C(=O)CN(C)C)C[C@@H]1C`, the relative growth was inactive: 0.983.
`Cc1noc(C)c1NC(=O)N(C)C[C@@H]1Oc2ccc(NS(C)(=O)=O)cc2C(=O)N([C@H](C)CO)C[C@@H]1C`: the relative growth was inactive: 1.
In the case of `C[C@@H]1CCCCO[C@H](CN(C)Cc2ccncc2)[C@@H](C)CN([C@H](C)CO)C(=O)c2cc(NC(=O)Nc3cccc4ccccc34)ccc2O1`, the relative growth is inactive: 0.969.
The result for `C[C@H]1CN([C@@H](C)CO)C(=O)c2cccc(NS(=O)(=O)c3cn(C)cn3)c2O[C@@H]1CN(C)Cc1ccncc1` reads inactive: 1.01.
For the compound `C[C@@H]1CCCCO[C@@H](CN(C)C(=O)c2ccncc2)[C@H](C)CN([C@H](C)CO)C(=O)c2cc(NC(=O)NC3CCCCC3)ccc2O1`, the relative growth is inactive: 0.99.
